Over roughly 33,000 sequences, “E-score (-0.5 to 0.5)” has its median near -0.017; the highest 2% begin near 0.3. The list shows a part of the results.

The assay addresses T1, Sut1 (UniProt P53032).
T1 sequence: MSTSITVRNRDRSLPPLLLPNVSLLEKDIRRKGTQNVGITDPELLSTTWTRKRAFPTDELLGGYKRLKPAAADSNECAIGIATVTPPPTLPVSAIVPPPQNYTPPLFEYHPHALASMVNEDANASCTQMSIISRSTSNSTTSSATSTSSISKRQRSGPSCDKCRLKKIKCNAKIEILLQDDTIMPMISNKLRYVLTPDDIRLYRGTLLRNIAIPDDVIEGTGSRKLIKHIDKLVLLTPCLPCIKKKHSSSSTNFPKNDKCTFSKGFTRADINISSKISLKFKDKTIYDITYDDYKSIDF
Briefly: PBM E-score (8-mer binding enrichment) (E-score (-0.5 to 0.5)); higher = stronger / more preferred TF binding; most listed sequences are background and not binding sites. To be noted: protein concentration: 200 nM; construct: GST-full length. In a few lines: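 Masliner-normalised scans of fluorescent anti-GST signal were the basis for scoring. That signal came from GST-tagged yeast transcription factors applied at about 100-200 nM to double-stranded universal all-10-mer Agilent arrays on fresh or once-stripped slides. Each ungapped eight-base word, pooled with its reverse complement, received an E-score from the Universal PBM Analysis Suite.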
Take AACATACC: the “PBM E-score” value was determined as 0.12. TCTCCGAA: the “PBM E-score” value turned out to be 0.446. Take ACAGGATA: the “PBM E-score” value is -0.0461. In the case of TCATACCA, the “PBM E-score” value is 0.032. Then GCTACAGA, with -0.18; and CCTGACCA, with -0.102. As for CGCGGTAG, the “PBM E-score” value is 0.0234.

Regarding CAGACTTA, the “PBM E-score” value is -0.227.

Turning to ATCTCAAA, the “PBM E-score” value came to 0.0485. For GCGACAAA, the “PBM E-score” value is -0.0734.

For ACACTGAA, the “PBM E-score” value was 0.083. The result for CAAGACTA reads -0.165; that for CATGGGAG, -0.223; that for TGTGGCAA, -0.0604.

As for GACTCCAA, the “PBM E-score” value was -0.0971.

In the case of GAACTGCA, the “PBM E-score” value is -0.0146.

Consider GATATCAA, for which the “PBM E-score” value was 0.0835.

For CTGCTTAC, the “PBM E-score” value was -0.138. For ACAACAGC, the “PBM E-score” value was 0.00492.

Turning to AGCCCACG, the “PBM E-score” value is -0.215. Regarding ATTCCGGG, the “PBM E-score” value stood at 0.295.

As for AGGTAATC, the “PBM E-score” value stood at 0.177. For the sequence CGCGTATC, the “PBM E-score” value was -0.127. Then AGTTCTGA, with 0.0627. Consider CAACTTCA, for which the “PBM E-score” value was -0.0874.

Regarding TGGGAACA, the “PBM E-score” value was -0.125. The result for ATAAGACA reads 0.0349; that for AAAGGGCA, -0.163; that for GTCCTATA, -0.113. AAGGGAGT: the “PBM E-score” value was -0.113. For the sequence CATGAAGA, the “PBM E-score” value was 0.0508.

Regarding AAATGCAA, the “PBM E-score” value worked out at 0.199.

Take CGACGATA: the “PBM E-score” value turned out to be 0.0118. Then AACGTGGA, with -0.0715; and AGACGAAG, with 0.103. As for AAAGTCCT, the “PBM E-score” value was determined as 0.208. On to ACGCAAAG, for which the “PBM E-score” value was -0.00456. Regarding ACGACTTG, the “PBM E-score” value was -0.033.

For GTGTCTAA, the “PBM E-score” value was -0.0776.

On to CAAATCTA, for which the “PBM E-score” value was 0.146. The result for CCCTCGGC reads -0.257; that for GAGTCTCC, 0.192; that for GCAAACAC, -0.238. The result for AAGTTTTC reads 0.233. As to CGACAAAG, the “PBM E-score” value amounted to 0.191.

Take ATTCCTGC: the “PBM E-score” value is -0.0439. CGCGAACC: the “PBM E-score” value was -0.00585. Then CTGTTCTC, with -0.0136; and GCACTACC, with -0.075; and AAAAGAAA, with 0.237. Regarding ACAGTCGA, the “PBM E-score” value is -0.21. For AAGCAGCG, the “PBM E-score” value was -0.113.

Take GCAATCCC: the “PBM E-score” value is -0.0279.

Regarding AGGTAACA, the “PBM E-score” value was 0.0751. For GAATGAAC, the “PBM E-score” value came to 0.18. The result for GAACCCGA reads -0.0651; that for CAGAACGC, -0.127; that for GCACGCGA, -0.151. The result for CTAAGTCC reads 0.114. Then CTCACTCC, with 0.187.

Turning to CTGAGTTC, the “PBM E-score” value worked out at 0.00543. For GGGGTGAC, the “PBM E-score” value is -0.108. Consider TACCCAAA, for which the “PBM E-score” value was -0.102. Then CCGCAAAC, with -0.0863.

As to GGGCAACC, the “PBM E-score” value was -0.158. Then ACTTGTAT, with 0.102; and ACACTATG, with 0.0863. Then AGCTCAAG, with -0.092; and CTTGAAAG, with 0.02; and CTATAGGC, with -0.222.

As to GCGCGAGC, the “PBM E-score” value is -0.15.

Regarding CCACCGAG, the “PBM E-score” value is -0.164. Then GTGGACAC, with -0.0681. Turning to CCCCATAG, the “PBM E-score” value is -0.173. Take CAACAATG: the “PBM E-score” value is 0.0583. For the sequence CGTTCCCA, the “PBM E-score” value is -0.146.

With CATATTTC, the “PBM E-score” value is -0.0077.

With CCGATTGC, the “PBM E-score” value came to 0.109. For the sequence AGCATCAG, the “PBM E-score” value was -0.0528. The result for ATAGTCCA reads 0.0136. The result for ATCAATCC reads 0.108; that for CCGTCGAA, 0.0383.

For the sequence AAATATTA, the “PBM E-score” value came to 0.227. Then ACGAGGTA, with 0.0273; and CGTAACTC, with -0.0052. In the case of AGGTTCAT, the “PBM E-score” value is -0.216.

Take CCGCGTGC: the “PBM E-score” value is 0.00164.

For CATACCAC, the “PBM E-score” value is -0.0444. CACATGGC: the “PBM E-score” value was -0.114. As to GATTAAAA, the “PBM E-score” value came to 0.223.

AGAAGACC: the “PBM E-score” value was -0.149. With CTACACGC, the “PBM E-score” value was -0.313. For the sequence CTGTACTA, the “PBM E-score” value is 0.112.

In the case of ACAAATGG, the “PBM E-score” value was determined as 0.0989.

The values are drawn from the supplement of paper PMC3334620.
